Results as given in PMC4336329 (PLoS ONE, 2015).
About 14,000 (4.5%) of roughly 310,000 compounds showed an effect of 50% or more. Effects have a minus sign here. This is one part of the list.

Biological target: human ether-à-go-go-related gene (hERG) potassium channel (human, UniProt Q12809)
Assay: primary screen, population patch clamp on CHO cells stably expressing hERG
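Note: peak tail current of the secondary pulse compared with the same well before compound.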

Sequence of human ether-à-go-go-related gene (hERG) potassium channel (Q12809 whole entry, looked up): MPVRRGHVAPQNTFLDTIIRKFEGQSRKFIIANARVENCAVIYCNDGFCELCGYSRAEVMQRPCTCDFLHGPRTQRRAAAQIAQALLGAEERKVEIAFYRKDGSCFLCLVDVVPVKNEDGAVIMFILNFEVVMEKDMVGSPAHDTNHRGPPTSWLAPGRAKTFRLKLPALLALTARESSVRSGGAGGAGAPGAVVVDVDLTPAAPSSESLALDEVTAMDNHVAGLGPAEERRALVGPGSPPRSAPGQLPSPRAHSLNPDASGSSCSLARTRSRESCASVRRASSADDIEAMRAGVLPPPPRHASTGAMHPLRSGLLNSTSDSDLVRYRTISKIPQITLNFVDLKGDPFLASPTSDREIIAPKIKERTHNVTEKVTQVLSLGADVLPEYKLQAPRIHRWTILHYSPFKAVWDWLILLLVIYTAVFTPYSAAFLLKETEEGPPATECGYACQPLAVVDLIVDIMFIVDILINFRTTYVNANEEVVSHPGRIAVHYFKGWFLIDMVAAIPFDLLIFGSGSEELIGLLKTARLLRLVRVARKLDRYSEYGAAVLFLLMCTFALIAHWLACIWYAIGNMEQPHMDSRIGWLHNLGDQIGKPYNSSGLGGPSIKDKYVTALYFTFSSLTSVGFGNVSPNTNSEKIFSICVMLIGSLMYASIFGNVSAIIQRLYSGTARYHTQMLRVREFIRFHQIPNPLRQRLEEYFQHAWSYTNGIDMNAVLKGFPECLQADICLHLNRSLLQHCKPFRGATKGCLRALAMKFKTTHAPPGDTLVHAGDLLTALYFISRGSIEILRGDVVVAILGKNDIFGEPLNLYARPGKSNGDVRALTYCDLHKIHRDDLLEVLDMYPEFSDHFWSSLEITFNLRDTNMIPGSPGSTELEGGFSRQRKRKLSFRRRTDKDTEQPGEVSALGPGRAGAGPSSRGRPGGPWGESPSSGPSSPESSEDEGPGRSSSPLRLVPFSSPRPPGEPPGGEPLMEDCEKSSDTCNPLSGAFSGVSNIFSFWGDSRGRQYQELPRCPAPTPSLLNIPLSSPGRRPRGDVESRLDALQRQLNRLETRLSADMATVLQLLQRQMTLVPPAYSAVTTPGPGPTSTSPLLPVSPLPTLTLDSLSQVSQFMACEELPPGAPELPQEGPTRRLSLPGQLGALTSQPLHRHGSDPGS

SMILES	hERG current change (%, negative = inhibition) at 10uM [%]
O=C(Cc1cccs1)Nc1ccc(N2CCOCC2)cc1	14.6
CC(C)c1ccc(NC(=O)c2cc([N+](=O)[O-])ccc2N2CCOCC2)cc1	-30.8
O=C(COc1ccccc1)Nc1ccc(Cl)cc1C(=O)c1ccccc1	6.83
COc1ccccc1C(=O)N1CC(=O)Nc2ccc(C)cc2C1c1ccc(F)cc1 (centres unmarked)	-38.6
CS(=O)(=O)c1ccc(Cl)c(NC(=O)COC(=O)CCN=C2NS(=O)(=O)c3ccccc32)c1	-25.2
Cc1ccc(S(=O)(=O)N(C)CC(=O)NCC(c2ccco2)N(C)C)cc1 (centres unmarked)	-8.64
Cc1cc2cc3c(cc2nc1SCc1ccccn1)OCCO3	5.43
COc1ccc(-c2c(C#N)c(N)n(N)c(=O)c2C#N)cc1Cl	20.5
CCc1ccccc1S(=O)(=O)Cc1ccc(C(=O)N2CCN(c3ccccc3OC)CC2)o1	-22.1
CCOC(=O)c1[nH]c(CSc2nnc(-c3ccncc3)n2CCOC)c(C(=O)OCC)c1C	-26.6
COc1cccc(CN(CC(=O)NCc2ccccc2)S(=O)(=O)CCl)c1	-16.8
N#Cc1c(N)nc(SC2CCCCC2=O)c(C#N)c1-c1ccco1 (centres unmarked)	-2.9
COc1ccc(N(CC(=O)N2CCN(c3cccc(C)c3C)CC2)S(=O)(=O)c2c(C)noc2C)cc1	15.1
O=C(COC(=O)CNC(=O)C1CCCCC1)Nc1cccc(F)c1	6.69
CCOC(=O)c1c(NC(=O)c2cc(-c3ccc(O)cc3)on2)sc(C(C)=O)c1C	10.4
COc1ccc(C(=O)NCC(=O)NCC(=O)OCC(=O)c2cccs2)cc1	-1.84
C=CCNC(=S)N/N=C(\C)c1ccc(-n2ccnc2)cc1	-43
CNC(C)c1cc(OC)ccc1OC (centres unmarked)	18.8
CCOC(=O)c1cnc(C(C)(C)C)[nH]c1=O	9.4
CC(=O)N1CCN(c2ccc(NC(=O)c3ccc4c(c3)OCO4)cc2)CC1	-17.7
N#CCCn1cc(/C=N/NC(=O)c2ccncc2)c(-c2ccccc2)n1	-4.78
CC1=C(C(=O)N2CCCC(CCC(=O)NCc3ccccc3F)C2)OCCO1 (centres unmarked)	19.7
Cc1nc(NC2CCCC2)sc1C(=O)N(C)C	13.4

SMILES	hERG current change (%, negative = inhibition) at 10uM [%]
Cc1ccc(NC(=O)CO/N=C/c2ccc(N(C)C)cc2)cc1	14.1
CCCC(=O)Nc1c2c(nn1-c1cccc(C)c1C)CS(=O)(=O)C2	-8.64
COc1ccccc1N1CCN(C(=O)c2c(-c3ccccc3)noc2C)CC1	-39.1
O=C(O)CCCC(=O)NNC(=O)c1cccc(Br)c1	15.9
CCCN1C2CCCC1CC(NC(=S)Nc1cccc(C)c1)C2 (centres unmarked)	-44.5
S=C(NCc1ccco1)Nc1cc(Cl)c(Cl)cc1Cl	10.8
CCOC(=O)CSc1nnc2c3ccccc3n(C)c2n1	-3.05
COc1ccc(C(=S)NC2CCCCC2)cc1	-22.2
CC(=O)c1cccc(N(C(=O)c2csnn2)C(C(=O)NC2CCCC2)c2ccccc2)c1 (centres unmarked)	-18.5
CC(C)CC(C(=O)NCC1CCCO1)N(C(=O)Cn1nnc(-c2ccc(F)cc2)n1)c1ccccc1F (centres unmarked)	-47
O=C(c1ccc2oc(Cc3ccc(Cl)cc3)nc2c1)N1CCCCC1CCO (centres unmarked)	-15
CCc1ccc(CN(C)C(=O)c2cc(COc3cccc4cnccc34)on2)cc1	1.05
CC(C)C[C@@H](CO)N(Cc1ccccc1)S(=O)(=O)N(Cc1ccccc1)[C@H](CO)CC(C)C	9.2
Cc1cc(C(C)c2ccccc2)c(O)c(CN2CCOCC2)c1C (centres unmarked)	9.05
COc1ccc(CN2CCN(C3CCOCC3)CC2CCO)c(C)c1C (centres unmarked)	-12.4
CC(OC(=O)/C=C/c1ccccc1)C(=O)Nc1ccc(C(N)=O)cc1 (centres unmarked)	13
Nc1ccc(/C=C/C(=O)c2ccco2)cc1	-8.19
COC(=O)C1=C(C)NC(C)=C(C(=O)OC)C1c1ccc(OC(=O)c2ccco2)cc1	9.46
CCOc1ccc(C2C(C(=O)c3ccco3)=C(O)C(=O)N2Cc2cccnc2)cc1 (centres unmarked)	3.07
Cc1csc(NC(=O)CSc2ccc3nnc(CCNS(=O)(=O)c4ccccc4)n3n2)n1	22.4
CC(=O)NCCn1c(SCC(=O)NCCc2ccc(S(N)(=O)=O)cc2)nc2ccccc2c1=O	13
CCC(c1nnnn1C(C)(C)C)N1CCN(Cc2ccccc2OC)CC1.Cl (centres unmarked)	-19.2
O=C(CCc1nnc(-c2ccc3c(c2)OCO3)o1)NC(c1ccccn1)C(F)(F)F (centres unmarked)	4.2

SMILES	hERG current change (%, negative = inhibition) at 10uM [%]
COc1ccc(C(=O)Nc2cc(C)on2)cc1	20.9
O=C(ONC1=NCCCCC1)c1cccc([N+](=O)[O-])c1	0.994
COC(=O)c1ccccc1NC(=O)N1CCN(c2ccccc2F)CC1	-11.9
Cc1nccn1CC(=O)N/N=C/c1cccs1	20.4
CNC(=S)N/N=C/c1ccc(-c2ccc(C(=O)O)cc2)o1	9.52
CCCC(=O)N1CCN(c2ccc(NC(=S)NC(=O)c3cccc(C)c3)cc2)CC1	-18.3
COc1ccc(C(=O)/C=C\c2ccc(NC(=O)c3cccs3)cc2)cc1	9.53
O=C1NC(=O)C2(COC3(CCCC3)OC2)S1	1.26
COc1ccc(C(C(=O)NCc2ccc(F)cc2)N(Cc2cccnc2)C(=O)c2snc(C(N)=O)c2N)cc1 (centres unmarked)	-62
Cc1cccc(C(=O)NNC(=O)CCCCC(=O)NNC(=O)c2cccc(C)c2)c1	11.7
CCCNS(=O)(=O)c1ccc(OCC(=O)Nc2ccc3c(c2)OCO3)cc1	21.9
CC(Nc1ccccc1)c1cccnc1 (centres unmarked)	-49.1
O=[N+]([O-])c1ccccc1S(=O)(=O)n1cnc2ccccc21	8.53
NS(=O)(=O)c1ccc(CNC(=O)c2ccc(Br)o2)cc1	-1.54
COc1ccccc1N/N=C(\C#N)C(=N)N1CCOCC1	1.49
O=C(/C=C/c1c(Cl)cccc1Cl)n1cccn1	15.7
CN(CCn1ccnc1)Cc1cn(Cc2ccccc2)nc1-c1ccc2c(c1)OCO2	-23.2
CCc1ccc2oc(-c3ccc(OC)cc3)cc(=[NH+]c3c(C)n(C)n(-c4ccccc4)c3=O)c2c1.F[B-](F)(F)F	-71.7
Cc1ccc(NC(=O)CCNS(=O)(=O)c2ccccc2)c(C(=O)c2ccccc2)c1	-20.4
O=C(Cc1ccccc1)N/N=C/C=C/c1ccccc1[N+](=O)[O-]	1.71
c1ccc(-n2nnnc2N2CCOCC2)cc1	8.78
CCOC(=O)N1CCN(C(=O)c2cccc(NC(=O)c3ccco3)c2)CC1	-11
Cc1ccn2cc(-c3ccc(O)c(O)c3)nc2c1.Cl	-4.03

SMILES	hERG current change (%, negative = inhibition) at 10uM [%]
Cl.OC(CN1C2=NCCN2c2ccccc21)c1ccccc1 (centres unmarked)	-42.7
COc1ccc(-n2cc(CNCC3CCOCC3)c(-c3cccc(F)c3)n2)cc1	-78.5
COc1cc2c(cc1NC(=O)C(C)Sc1ccc(NC(C)=O)cc1)oc1ccccc12 (centres unmarked)	7.08
O=C(NCc1ccc(F)cc1)C(c1ccccc1)c1ccccc1	4.43
CCOc1ccc(N=Cc2c(O)c3ccccc3oc2=O)cc1	3.29
Cn1c(SCC(=O)NC2CCCCCC2)nnc1-c1cccs1	-22.1
Cc1cccc(CC(=O)N2CCCC2)c1	12.2
CC(C)Oc1ccc(C(=O)Nc2ccc(C(F)(F)F)n(C)c2=O)cc1	9.94
Cc1ccccc1-n1sc2cc(F)ccc2c1=O	31.1
CC(=O)OC(C(=O)Nc1ccccc1)C(C)S(=O)(=O)c1ccccc1 (centres unmarked)	-5.81
CCCNc1ccc(C(=O)OCC)cc1[N+](=O)[O-]	-6.67
O=C(/C=C/c1ccc(Cl)cc1)N(c1ccccn1)C1CCCCC1	-7.91
CCOc1ccc2nc(SCC(=O)NCc3ccccc3)[nH]c2c1	2.63
COC(=O)c1cccc(NC(=O)c2ccc(OC)c(Cl)c2)c1	-65.3
Cc1ccccc1N(CC(=O)NCCc1ccccc1)C(=O)c1csnn1	9.77
O=S(=O)(Cc1ccccc1)N1CCN(C/C=C/c2ccccc2)CC1	-5.88
CC(=O)Nc1ccc(/C=C/c2nc3ccccc3o2)cc1	5.42
O=C(Nc1ccc(F)c(F)c1)C1CCCCC1	4.34
CSc1nc2ccc(NS(=O)(=O)c3ccc4c(c3)OCCO4)cc2s1	5.09
COC(=O)C1CN(C(=O)C(C)Oc2ccc(C(C)C)cc2)c2ccccc2O1 (centres unmarked)	0.965
